This is one part of the list.
What was measured:
HSkMC = human skeletal muscle cells; assay: cytotoxicity call (relative viability < 0.9); settings: 10 µM
S. aureus RN4220 = assay: growth inhibition call (relative growth <= 0.2); settings: 50 µM

| SMILES | cytotoxicity call (HSkMC) | growth inhibition call (S. aureus RN4220) |
| --- | --- | --- |
| CCCC[C@@H](C#N)c1ccccn1 | inactive | inactive |
| CO[C@H]1CN(C)C(=O)c2ccc(NS(C)(=O)=O)cc2OC[C@H](C)N(C(=O)c2ccc3c(c2)OCO3)C[C@H]1C | inactive | inactive |
| COCCNC(=O)C[C@@H]1CC[C@@H]2[C@H](COc3ccc(NC(=O)Nc4cccc(F)c4)cc3C(=O)N2C)O1 | inactive | inactive |
| C[C@@H]1CN([C@@H](C)CO)C(=O)c2cc(NC(=O)Nc3ccc(C(F)(F)F)cc3)ccc2O[C@H]1CN(C)C(=O)Nc1ccc(C(F)(F)F)cc1 | inactive | inactive |
| C[C@@H]1CCCCO[C@H](CN(C)Cc2ccccc2)[C@@H](C)CN([C@@H](C)CO)C(=O)c2cc(NC(=O)Nc3ccc(F)cc3)ccc2O1 | inactive | inactive |
| C[C@H]1CN([C@@H](C)CO)C(=O)Cc2cc(NC(=O)Nc3ccc4c(c3)OCO4)ccc2O[C@@H]1CN(C)Cc1ccc(C(F)(F)F)cc1 | inactive | inactive |
| COCCOC(=O)N1C(=O)[C@@]2(c3cc(C#Cc4ccc(OC)cc4)ccc31)[C@H](c1ccccc1OCCO)N1[C@H](c3ccccc3)[C@H](c3ccccc3)OC(=O)[C@H]1[C@@H]2C(=O)NC[C@H](O)c1ccccc1 | inactive | inactive |
| COc1ccc(NC(=O)Nc2ccc3c(c2)C(=O)N([C@@H](C)CO)C[C@@H](C)[C@@H](CN(C)Cc2ccc(C(F)(F)F)cc2)OCCCC[C@@H](C)O3)cc1 | inactive | inactive |
| CC(C)NC(=O)N(C)C[C@H]1OCCCC[C@H](C)Oc2ccc(NC(=O)C3CCCCC3)cc2C(=O)N([C@H](C)CO)C[C@H]1C | inactive | inactive |
| C[C@@H]1CCCCO[C@@H](CN(C)CC2CCCCC2)[C@H](C)CN([C@@H](C)CO)C(=O)c2cc(NC(=O)c3ccccc3)ccc2O1 | inactive | inactive |
| C[C@@H](NC(=O)C[C@@H]1C=C[C@H](NC(=O)CN2CCOCC2)[C@H](CO)O1)c1ccccc1 | inactive | inactive |
| C[C@H](CO)N1C[C@H](C)[C@H](CN(C)C(=O)Nc2ccccc2)OCCCC[C@H](C)Oc2ccc(NC(=O)Nc3ccc(C(F)(F)F)cc3)cc2C1=O | inactive | inactive |
| O=C1CC[C@@H](C(=O)O)N1 | inactive | inactive |
| Cc1ccc(S(=O)(=O)Nc2ccc3c(c2)C(=O)N([C@H](C)CO)C[C@H](C)[C@H](CN(C)C(=O)Cc2ccccc2)OCCCC[C@H](C)O3)cc1 | inactive | inactive |
| CCc1nnc(SCC(=O)OC)[nH]1 | inactive | inactive |
| C[C@H]1CN([C@@H](C)CO)C(=O)c2cc(-c3cncnc3)cnc2O[C@H]1CN(C)C(=O)CN1CCOCC1 | inactive | inactive |
| COc1ccc(S(=O)(=O)N(C)C[C@@H]2Oc3ncc(C#CC4(O)CCCC4)cc3C(=O)N([C@@H](C)CO)C[C@@H]2C)cc1 | inactive | inactive |
| O=S(=O)(NCC[C@@H]1CC[C@H](NS(=O)(=O)c2ccccc2Cl)[C@H](CO)O1)c1ccc(F)cc1 | inactive | inactive |
| COc1ccc(NC(=O)Nc2ccc3c(c2)C(=O)N([C@@H](C)CO)C[C@@H](C)[C@@H](CN(C)C(=O)C2CCCCC2)OCCCC[C@H](C)O3)cc1 | inactive | inactive |
| COCC#Cc1ccc2c(c1)O[C@@H](CN(C)C(=O)c1ccccc1F)[C@@H](C)CN([C@@H](C)CO)S2(=O)=O | inactive | inactive |

| SMILES | cytotoxicity call (HSkMC) | growth inhibition call (S. aureus RN4220) |
| --- | --- | --- |
| C[C@H](CO)N1C[C@H](C)[C@@H](CN(C)S(=O)(=O)c2ccc(Cl)cc2)Oc2ccc(NC(=O)Cn3cnnn3)cc2C1=O | inactive | inactive |
| C[C@@H]1CN([C@@H](C)CO)C(=O)c2cc(NC(=O)Nc3cccc4ccccc34)ccc2O[C@H]1CN(C)CC1CCCCC1 | inactive | inactive |
| C[C@H](CO)N1C[C@H](C)[C@H](CN(C)S(=O)(=O)c2cn(C)cn2)Oc2ccc(NC(=O)Nc3ccc4c(c3)OCO4)cc2C1=O | inactive | inactive |
| COc1ccc(CN(C)C[C@@H]2Oc3ccc(NS(=O)(=O)c4cn(C)cn4)cc3C(=O)N([C@H](C)CO)C[C@@H]2C)cc1 | inactive | inactive |
| C[C@@H]1CN([C@@H](C)CO)C(=O)Cc2cc(NS(=O)(=O)c3cn(C)cn3)ccc2O[C@@H]1CN(C)Cc1ccc(C(=O)Nc2ccccc2N)cc1 | inactive | inactive |
| COc1cc(/C=C/C(=O)NCCCNC(=O)/C=C/c2cc(OC)c(OC)c(OC)c2)cc(OC)c1OC | inactive | inactive |
| C[C@H](CO)N1C[C@H](C)[C@@H](CN(C)Cc2ccc(-c3ccccc3)cc2)Oc2ccc(NC(=O)Nc3cccc4ccccc34)cc2C1=O | inactive | inactive |
| O=C(CN1CCOCC1)NCC[C@@H]1CC[C@@H](NC(=O)Nc2ccccc2)[C@H](CO)O1 | inactive | inactive |
| C[C@H](CO)N1C[C@H](C)[C@@H](CN(C)C(=O)C2CCOCC2)Oc2ncc(C#Cc3cccc(F)c3)cc2C1=O | inactive | inactive |
| COc1ccccc1CN(C)C[C@H]1OCc2ccccc2-c2c(n(C)c3ccccc23)C(=O)N([C@@H](C)CO)C[C@@H]1C | inactive | inactive |
| C[C@H]1CCCCO[C@@H](CN(C)S(=O)(=O)c2ccc(F)cc2)[C@@H](C)CN([C@@H](C)CO)C(=O)c2cc(NC(=O)Nc3cccc4ccccc34)ccc2O1 | inactive | inactive |
| CC(C)CC#Cc1ccc2c(c1)O[C@@H](CN(C)C(=O)C1CCOCC1)[C@@H](C)CN([C@@H](C)CO)S2(=O)=O | inactive | inactive |
| COc1ccc([Si](C)(C)[C@@H]2[C@@H](CC(=O)N(CCO)Cc3ccccc3)O[C@]3(C(=O)N(Cc4ccc(N5CCC5=O)cc4)c4ccccc43)[C@H]2C)cc1 | inactive | inactive |
| COc1ccc(NC(=O)Nc2ccc3c(c2)C(=O)N([C@H](C)CO)C[C@H](C)[C@@H](CN(C)C(=O)CCC(F)(F)F)OCCCC[C@@H](C)O3)cc1 | inactive | inactive |
| CN(C)CC(=O)N[C@@H]1CC[C@H](CCNC(=O)C2CCC2)O[C@H]1CO | inactive | inactive |
| Cc1noc(C)c1NC(=O)Nc1ccc2c(c1)C(=O)N([C@@H](C)CO)C[C@@H](C)[C@H](CN(C)C(=O)Nc1ccc(F)cc1)OCCCC[C@H](C)O2 | inactive | inactive |
| COc1cccc(S(=O)(=O)Nc2ccc3c(c2)[C@@H]2C[C@@H](CC(=O)NCc4ccccc4F)O[C@H](CO)[C@@H]2O3)c1 | inactive | inactive |
| C[C@H]1CN([C@@H](C)CO)S(=O)(=O)c2ccc(C#Cc3ccncc3)cc2O[C@@H]1CN(C)S(=O)(=O)c1ccc(F)cc1 | active | inactive |
| C[C@@H]1CCCCO[C@@H](CN(C)C(=O)CCCN(C)C)[C@@H](C)CN([C@H](C)CO)C(=O)c2cc(NS(C)(=O)=O)ccc2O1 | inactive | inactive |
| C[C@@H]1CCCCO[C@H](CN(C)C(=O)Nc2ccc(F)cc2)[C@@H](C)CN([C@H](C)CO)C(=O)c2cc(NC(=O)C3CCCCC3)ccc2O1 | inactive | inactive |

| SMILES | cytotoxicity call (HSkMC) | growth inhibition call (S. aureus RN4220) |
| --- | --- | --- |
| C[C@@H]1CN([C@H](C)CO)C(=O)c2cccc(NS(=O)(=O)c3cccs3)c2O[C@@H]1CN(C)CC1CC1 | inactive | inactive |
| Cc1ccccc1C(OCCN(C)C)c1ccccc1.O=C(O)CC(O)(CC(=O)O)C(=O)O (stereo unspecified) | inactive | inactive |
| C[C@H](CO)N1C[C@H](C)[C@@H](CN(C)Cc2ccc(Cl)c(Cl)c2)Oc2ccc(NS(=O)(=O)c3ccc(F)cc3)cc2CC1=O | inactive | inactive |
| C[C@@H]1CN([C@@H](C)CO)C(=O)c2cccc(NS(=O)(=O)c3ccccc3)c2O[C@H]1CN(C)Cc1ccc(-c2ccccc2)cc1 | inactive | inactive |
| C[C@H](CO)N1C[C@H](C)[C@@H](CN(C)S(=O)(=O)c2ccccc2F)Oc2ncc(C#Cc3ccccc3)cc2C1=O | inactive | inactive |
| COc1ccccc1S(=O)(=O)N(C)C[C@H]1OCc2cnnn2CCCC(=O)N([C@@H](C)CO)C[C@@H]1C | inactive | inactive |
| Cc1noc(C)c1NC(=O)N[C@@H]1C=C[C@@H](CC(=O)N2CCN(C)CC2)O[C@@H]1CO | inactive | inactive |
| C[C@@H]1CN([C@H](C)CO)C(=O)Cc2cc(NS(=O)(=O)c3ccc(F)cc3)ccc2O[C@@H]1CN(C)S(=O)(=O)c1cn(C)cn1 | inactive | inactive |
| O=C(NCc1nc2ccccc2[nH]1)C1=C[C@H](c2ccc(C(F)(F)F)cc2)C[C@H](OCc2ccc(CO)cc2)O1 | inactive | inactive |
| C[C@H](CO)N1C[C@H](C)[C@@H](CN(C)Cc2ccccc2)Oc2ccc(NC(=O)CCCN(C)C)cc2CC1=O | inactive | inactive |
| CN1CCN(C(=O)C[C@H]2CC[C@@H]3[C@H](COC[C@H](O)CN3C(=O)C3CC3)O2)CC1 | inactive | inactive |
| C[C@H](CO)N1C[C@H](C)[C@@H](CN(C)Cc2ccc(C(=O)O)cc2)Oc2ccc(NC(=O)c3ccncc3)cc2CC1=O | inactive | inactive |
| O=C(O)c1cc(O)c2cccc(O)c2n1 | inactive | inactive |
| C[C@H](NC(=O)N(C)C[C@@H]1OCc2ccccc2-c2ccccc2C(=O)N([C@H](C)CO)C[C@@H]1C)c1ccccc1 | inactive | inactive |
| O=C(C[C@@H]1C[C@H]2c3cc(NC(=O)c4ccc5c(c4)OCO5)ccc3O[C@H]2[C@H](CO)O1)NCc1ccc(Oc2ccccc2)cc1 | inactive | inactive |
| COc1ccc(S(=O)(=O)N(C)C[C@H]2Oc3ccc(NC(=O)Cn4cnnn4)cc3C(=O)N([C@@H](C)CO)C[C@H]2C)cc1 | inactive | inactive |
| O=C(O)CN(CCN(CC(=O)O)CC(=O)O)CCN(CC(=O)O)CC(=O)O | inactive | inactive |
| C[C@H]1CCCCO[C@H](CN(C)C(=O)C2CCCCC2)[C@@H](C)CN([C@@H](C)CO)C(=O)c2cc(NC(=O)CCC(F)(F)F)ccc2O1 | inactive | inactive |
